# Measurements published in PubChem BioAssay AID463173 (ICCB-Longwood Screening Facility, Harvard Medical School, 2010).
# Screen size: about 52,000 compounds; about 1,700 (3.3%) were called active. Cut-off read from the data, not from the text of the source: active = survival mostly below about 52% (no sharp cut-off); inactive = mostly above about 56%. Some of the results follow.
# System: Wild type
# Assay: growth inhibition of S. aureus wild type versus tarO mutant, primary screen, teichoic acid synthesis inhibitors, RN4220, OD600 (AID 463173)
# Conditions: S. aureus RN4220 wild type/DeltatarO growth, OD600, 18 h, stronger effect = lower value, screened at 18.75 µg/mL (by protocol)
row,Compound,survival
1,Cc1cccc(N2CCN(C(=O)C3CCCN(S(=O)(=O)c4ccc5c(c4)oc(=O)n5C)C3)CC2)c1C (configuration not stated),inactive: 86%
2,Cc1oc2ccc(O)c(CN3CCCC3)c2c1C(=O)Nc1ccccc1,inactive: 86%
3,CC1(C(=O)O)CCC(C(=O)N2CCCCC2)C1(C)C (configuration not stated),inactive: 106%
4,COc1ccccc1NC(=O)C(C)Sc1nnc2ccc3ccccc3n12 (configuration not stated),inactive: 81%
5,Cc1ccc(CNC(=O)CN2C(=O)CCn3nc(-c4ccccc4)cc32)cc1,inactive: 68%
6,CCc1cccc2c(-c3ccccc3)nc(SCC(=O)Nc3ccccc3OC)nc12,inactive: 127%
7,Cc1ccc(-n2ncc(C(=O)NCc3cccs3)c2C2CCN(C(=O)OC(C)(C)C)CC2)cc1,inactive: 78%
8,CCCn1c(=O)c2sccc2n2c(CCCC(=O)NC3CCC(C)CC3)nnc12 (configuration not stated),inactive: 100%
9,CCCCOc1ccc(C(=O)NCCc2csc(-c3cccc(F)c3)n2)cc1,inactive: 72%
10,CC1Cc2cc(S(=O)(=O)CCC(=O)NCc3ccc(Cl)cc3)ccc2N1C(=O)C1CC1 (configuration not stated),inactive: 83%
11,COCCOC(=O)C1=C(C)NC(=O)NC1c1cn(-c2ccccc2)nc1-c1ccccc1 (configuration not stated),inactive: 68%
12,O=C(CS(=O)(=O)Cc1ccccc1)Nc1ccccn1,inactive: 115%
13,COc1ccc(OC)c(CCNC(=O)CCc2cn(Cc3cc(C)ccc3C)c3ccccc23)c1,inactive: 84%
14,Cc1ccc(CNCC(C)O)s1 (configuration not stated),inactive: 96%
15,Cc1ccc(Cl)cc1NS(=O)(=O)c1ccc2c(c1)NC(=O)CCS2,inactive: 82%
16,O=C(Cn1c(=O)c2cccn2c2ccc(F)cc21)N1CCN(c2ccccc2F)CC1,inactive: 89%
17,COc1cccc(C2NC(=O)c3n[nH]c(-c4cccs4)c32)c1 (configuration not stated),inactive: 72%
18,O=C(N1CCOCC1)C1(c2ccc(Cl)cc2)CCCC1,inactive: 108%
19,Fc1ccc(-n2ncc3c(NCCCn4ccnc4)ncnc32)cc1,inactive: 80%

row,Compound,survival
1,CN1CCN(C(CNC(=O)c2ccccc2F)c2ccc3c(c2)OCO3)CC1 (configuration not stated),inactive: 72%
2,COc1ccc(C(=O)N(Cc2cc(OC)c(OC)c(OC)c2)c2ccccn2)cc1,inactive: 84%
3,O=C(Cn1c(=O)nc(-c2ccccc2)c2ccccc21)NCCc1ccc(Cl)cc1,inactive: 84%
4,COc1ccc(Br)cc1CNC(=O)c1cnc2sc(N3CCCC3)nn2c1=O,inactive: 68%
5,CNc1nc(OCC#N)nc(N2CCCCC2)n1,inactive: 119%
6,Cc1cc2[nH]c(=O)c(=O)[nH]c2cc1S(=O)(=O)N1CCN(c2cccc(C(F)(F)F)c2)CC1,inactive: 70%
7,O=C1Nc2ccccc2N(O)N1c1ccccc1Cl,inactive: 112%
8,COc1ccc(-c2cn3nc(N4CCCC(C(=O)Nc5cc(C)ccc5C)C4)sc3n2)cc1 (configuration not stated),inactive: 71%
9,CCN1C(=O)C(O)(CC(=O)c2ccc(OC)c(OC)c2)c2ccccc21 (configuration not stated),inactive: 95%
10,COc1cc(NC(=O)NCC2CCN(Cc3ccccc3Cl)CC2)cc(OC)c1OC,inactive: 72%
11,CCCCN(CC)CCNC(=O)CCn1cnc2onc(-c3ccc(F)cc3)c2c1=O,inactive: 72%
12,COc1ccc(NC(=O)c2sc3nc(-c4cc5ccc(OC)cc5oc4=O)[nH]c(=O)c3c2C)cc1,inactive: 90%
13,Cc1cccc(-n2cc(-c3ccccc3)c3c(N4CCC(C)CC4)ncnc32)c1,inactive: 72%
14,COc1ccc(Cl)cc1NC(=O)c1cnc(SC)nc1-c1ccccc1,inactive: 22%
15,Cc1ccccc1NC(=O)C(=O)NCC1(c2ccccc2)CCCC1,inactive: 94%
16,CCOc1ccc(Nc2nc(C)c(NC(=O)c3ccc(C)cc3)c(Nc3ccc(OCC)cc3)n2)cc1,inactive: 149%
17,O=C(CSc1nnc(Cc2ccccc2)n1Cc1ccccc1)N1CCCC1,inactive: 112%
18,O=C(CSc1nnc2scc(-c3ccc(Cl)cc3)n12)Nc1cccc(C(F)(F)F)c1,inactive: 68%
19,COc1cc(NC(=O)CC(C)S(=O)(=O)c2ccc3c(c2)CCN3C(C)=O)cc(OC)c1OC (configuration not stated),inactive: 76%

row,Compound,survival
1,CCN1CCN(c2ncc3c(n2)CCN(Cc2sccc2C)C3)CC1,inactive: 63%
2,COc1ccc(Cl)cc1Nc1nc2ccc(C(=O)c3ccccc3)cc2n2cnnc12,inactive: 75%
3,CCOC(=O)Cc1ccc(NC(=O)N2CCc3c(sc4c3CCCC4)C2c2ccc(F)cc2)cc1 (configuration not stated),inactive: 81%
4,CCn1c(=O)c2cc(C(=O)N3CCN(c4cccc(OC)c4)CC3)sc2c2ccccc21,inactive: 69%
5,Cc1ccc(NC(=O)CN(C)S(=O)(=O)c2cccc3cccnc23)cc1F,inactive: 71%
6,Cc1sc2ncn(CC(=O)N3CCN(c4ccccc4)CC3)c(=O)c2c1S(=O)(=O)N1CCN(c2ncccn2)CC1,inactive: 157%
7,CCc1cccc(-n2nnc(-c3nsc(NC(=O)c4ccc(C)cc4)n3)c2C)c1,inactive: 53%
8,CN(CC(=O)Nc1ccc(Cl)cc1F)S(=O)(=O)c1ccc2c(c1)n(C)c(=O)c(=O)n2C,inactive: 120%
9,CCc1ccc(C(c2ccccc2)c2c[nH]c3ccc(C)cc23)s1 (configuration not stated),inactive: 52%
10,Fc1ccc(C(Nc2ccccc2Cl)c2nnc(-c3ccccc3Cl)o2)cc1 (configuration not stated),inactive: 89%
11,CC(C(=O)Nc1ccccc1C(F)(F)F)n1nnc2sc3c(c2c1=O)CCCC3 (configuration not stated),inactive: 88%
12,O=C(N/C(=C\c1ccc(F)cc1)C(=O)N1CCOCC1)c1ccccc1,inactive: 97%
13,Cc1ccc(NC(=O)c2cccc(N3CCCS3(=O)=O)c2)cc1C,inactive: 72%
14,Cc1ccc(NC(=O)[C@H]2O[C@@H]3OC(C)(C)O[C@@H]3[C@H]3OC(C)(C)O[C@H]32)cc1F,inactive: 98%
15,CCS(=O)(=O)NCC(c1ccco1)N1CCN(c2ccccc2)CC1 (configuration not stated),inactive: 89%
16,CCc1ccc(CNC(=O)CSc2c3c(nc4ccc(Cl)cc24)CCCC3)cc1,inactive: 76%
17,O=C(NCCn1cc(SCc2ccccc2F)c2ccccc21)c1cccs1,inactive: 64%
18,Cc1ccc2c(c1)C(c1ccccc1)N(C(=O)c1ccc(S(=O)(=O)N3CCCCC3)cc1)CC(=O)N2 (configuration not stated),inactive: 86%
19,CSc1nc(Nc2ccc(C)cc2)c(C#N)c(-c2ccccc2)n1,inactive: 114%
